Consider 90 molecules from PMC4336329 (PLoS ONE, 2015).

About 14,000 (4.5%) of roughly 310,000 compounds showed an effect of 50% or more. Effects have a minus sign here. The list shows a part of the results.
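Further: peak tail current of the secondary pulse compared with the same well before compound.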

The assay deals with human ether-à-go-go-related gene (hERG) potassium channel (human, UniProt Q12809). Briefly: primary screen, population patch clamp on CHO cells stably expressing hERG.
Sequence of human ether-à-go-go-related gene (hERG) potassium channel (Q12809 whole entry, looked up): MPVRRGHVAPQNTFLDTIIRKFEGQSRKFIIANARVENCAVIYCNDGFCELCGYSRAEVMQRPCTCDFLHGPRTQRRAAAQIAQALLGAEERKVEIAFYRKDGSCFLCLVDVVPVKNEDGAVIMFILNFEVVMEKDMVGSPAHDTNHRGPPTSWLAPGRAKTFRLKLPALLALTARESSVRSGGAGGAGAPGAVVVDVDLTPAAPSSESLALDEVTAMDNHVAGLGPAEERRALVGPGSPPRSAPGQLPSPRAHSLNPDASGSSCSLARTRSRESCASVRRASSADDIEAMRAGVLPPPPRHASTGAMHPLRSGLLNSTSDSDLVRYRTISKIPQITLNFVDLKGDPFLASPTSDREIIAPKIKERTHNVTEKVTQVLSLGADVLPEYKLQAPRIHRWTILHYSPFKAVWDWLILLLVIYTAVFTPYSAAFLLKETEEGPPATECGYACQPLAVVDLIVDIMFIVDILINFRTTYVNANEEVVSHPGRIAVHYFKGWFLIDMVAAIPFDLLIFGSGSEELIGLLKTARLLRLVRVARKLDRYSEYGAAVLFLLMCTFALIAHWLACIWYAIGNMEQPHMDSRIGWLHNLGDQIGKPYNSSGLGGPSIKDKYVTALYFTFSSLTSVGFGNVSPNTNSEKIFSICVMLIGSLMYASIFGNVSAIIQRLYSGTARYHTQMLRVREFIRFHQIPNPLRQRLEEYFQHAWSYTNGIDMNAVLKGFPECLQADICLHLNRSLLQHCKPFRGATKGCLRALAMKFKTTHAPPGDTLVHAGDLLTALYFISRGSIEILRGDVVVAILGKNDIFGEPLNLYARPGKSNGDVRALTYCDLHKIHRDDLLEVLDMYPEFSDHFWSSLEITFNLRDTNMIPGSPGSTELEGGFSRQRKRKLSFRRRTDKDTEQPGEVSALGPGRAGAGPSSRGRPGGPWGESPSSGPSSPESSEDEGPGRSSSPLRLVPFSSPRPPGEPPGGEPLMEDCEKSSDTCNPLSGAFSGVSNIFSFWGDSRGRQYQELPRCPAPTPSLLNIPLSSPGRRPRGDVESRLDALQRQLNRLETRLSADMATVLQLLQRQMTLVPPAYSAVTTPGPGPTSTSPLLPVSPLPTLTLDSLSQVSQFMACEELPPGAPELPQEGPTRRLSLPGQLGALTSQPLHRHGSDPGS
On to `CCOC(=O)N1CCN(C(=O)COC(=O)COc2c(C)cc(C)cc2C)CC1`, for which the “hERG current change (%, negative = inhibition) at 10uM” value is on record as -9.8%. Take `CC1CC(NNC(=O)c2ccccc2)=Nc2ccccc2N1C` (stereo not drawn): the “hERG current change (%, negative = inhibition) at 10uM” value is -1.15%. The value for `O=C1C2C3C=CC(C3)C2C(=O)N1c1nc2ccccc2s1` (stereo not drawn) was -1.49%; that for `CCOc1ccc(Cc2nnc(SCC(=O)Nc3ccc(C(C)=O)cc3)[nH]c2=O)cc1` was 13.2%. For `Cc1[nH]ncc1-c1nc2ccccc2[nH]1`, the “hERG current change (%, negative = inhibition) at 10uM” value stood at 8.35%. Consider `CC(=O)Nc1cccc(C(=O)OCC(=O)N2CCC(c3ccccc3)=N2)c1`, for which the “hERG current change (%, negative = inhibition) at 10uM” value was -19.2%. On to `O=C(O)CN1C(=O)CSC1=S`, for which the “hERG current change (%, negative = inhibition) at 10uM” value was determined as 21.2%. With `O=C(NCc1ccccc1F)C1CCN(C(=O)c2sccc2-n2cccc2)CC1`, the “hERG current change (%, negative = inhibition) at 10uM” value was -3.91%. With `CCOc1ccccc1NC(=O)c1cc(C(=O)Nc2ccccc2OCC)cc(N2C(=O)CCC2=O)c1`, the “hERG current change (%, negative = inhibition) at 10uM” value is 6.64%. For `C=CCn1c(SC(C)C(=O)c2c(N)n(C)c(=O)n(C)c2=O)nnc1-c1ccoc1C` (stereo not drawn), the “hERG current change (%, negative = inhibition) at 10uM” value is 0.626%.

As to `CC(=O)Nc1ccc(NC(=O)CC2Nc3cccc4cccc(c34)NC2=O)cc1` (stereo not drawn), the “hERG current change (%, negative = inhibition) at 10uM” value is on record as 8.18%.

In the case of `Cc1cc(C)cc(N(CC(=O)Nc2ccc(C(F)(F)F)cc2)S(=O)(=O)c2c(C)[nH]c(=O)[nH]c2=O)c1`, the “hERG current change (%, negative = inhibition) at 10uM” value is given as -88%. Take `CC(=O)N1CCN2C(=O)C1CCCC(=O)c1cc(C(C)C)ccc12` (stereo not drawn): the “hERG current change (%, negative = inhibition) at 10uM” value stood at 8.03%. The value for `CCCCOC(=O)c1ccc(NC(=O)c2nn(C)cc2Br)cc1` was 6.19%.

`CCOc1ccccc1C(=O)N1CCN=C1SC`: the “hERG current change (%, negative = inhibition) at 10uM” value turned out to be 15%. In the case of `COc1ccc(C(=O)Nc2ccc(Cl)cc2C(=O)NCc2ccco2)cc1OC`, the “hERG current change (%, negative = inhibition) at 10uM” value was -26.9%. Consider `CCOc1ccc(NC(=O)CN(C)C(=O)CCCc2nc3ccccc3c(=O)[nH]2)cc1OCC`, for which the “hERG current change (%, negative = inhibition) at 10uM” value is reported as 14.4%. With `CCOC(=O)CNC(=O)c1sc2ncnc(N3CCc4ccccc4C3)c2c1C`, the “hERG current change (%, negative = inhibition) at 10uM” value is -36.6%. Regarding `O=C(NC(=S)Nc1ccc(N2CCOCC2)cc1)c1ccc(Cl)cc1`, the “hERG current change (%, negative = inhibition) at 10uM” value amounted to 11.1%. Take `CCOc1ccccc1-n1cnc(C#N)c1N`: the “hERG current change (%, negative = inhibition) at 10uM” value worked out at 8.68%. In the case of `O=C(NC(=S)Nc1cccc(CO)c1)c1ccc(-c2ccccc2)cc1` it was 10.4%.

Turning to `COc1cc(C)c(CN2CCSCC2)cc1C`, the “hERG current change (%, negative = inhibition) at 10uM” value came out at 10.1%. With `Cc1nc([N+](=O)[O-])c(C(=O)O)n1C`, the “hERG current change (%, negative = inhibition) at 10uM” value is recorded as 9.89%. In the case of `N#C/C(=C/c1ccc(-c2cc([N+](=O)[O-])ccc2Cl)o1)C(N)=O` it was 1.62%; in that of `C=CCc1ccccc1OCC(O)CN1CCN(CCO)CC1.Cl` (stereo not drawn), 11.3%; in that of `Cc1ccc(S(=O)(=O)c2nc(N3CCOCC3)sc2Cl)cc1`, -22.7%. In the case of `CC(C)N(CC(N)=O)c1ncnc2sc(-c3ccccc3)cc12` it was -16.7%. With `Cc1nc2c(-c3ccccc3)cnn2c(N)c1-c1ccccc1`, the “hERG current change (%, negative = inhibition) at 10uM” value is recorded as 19%. `Cc1ccc(C(=O)CCNc2ccc(Cl)cc2)o1`: the “hERG current change (%, negative = inhibition) at 10uM” value is -9.13%. Turning to `CCOC(=O)COn1c(SCC(=O)OCC)nc2ccccc2c1=O`, the “hERG current change (%, negative = inhibition) at 10uM” value is recorded as -23.5%. The value for `COc1ccc(F)cc1S(=O)(=O)N1CCN(C(=O)c2ccco2)CC1` was 12.4%; that for `COc1ccc(CN(C)S(=O)(=O)c2nnc(NC(=O)c3cccc(F)c3)s2)cc1OC` was 19.9%; that for `CC1CC(=O)c2cnc(N3CCOCC3)nc2C1` (stereo not drawn) was -4.13%. In the case of `Cc1cc(C)c(S(=O)(=O)NCC2CCC(C(=O)NCc3ccccn3)CC2)c(C)c1` (stereo not drawn) it was -47%; in that of `NN1C(=O)/C(=C\c2ccco2)SC1=S`, -1.9%; in that of `Cc1ccnc(NCc2ccccc2O)c1`, 14.6%. The value for `NS(=O)(=O)c1cccc(NC(=O)CN2CCCc3ccccc32)c1` was 9.68%. Regarding `c1ccc(CN2CCN(c3ncnc4nc[nH]c34)CC2)cc1`, the “hERG current change (%, negative = inhibition) at 10uM” value is -3.17%. In the case of `CCOc1ccc(NC(=O)CN(C)C(=O)C2CSC3(C)CCC(=O)N23)cc1OCC` (stereo not drawn) it was -7.18%; in that of `COc1ccccc1CNS(=O)(=O)c1ccc(Br)s1`, -10.8%. The value for `CN1CCN(C(=O)c2ccc3c(c2)N(Cc2ccccc2F)C(=O)c2ccccc2S3=O)CC1` (stereo not drawn) was 5.05%; that for `O=C(/C=C/c1ccc(Cl)cc1)NC1CC2CCC1C2` (stereo not drawn) was -53.1%; that for `CN1CCCN(S(=O)(=O)c2cccc(C(F)(F)F)c2)c2nc3ccccc3nc21.Cl` was 5.8%. `Cc1[nH]n(-c2ccc([N+](=O)[O-])cc2)c(=O)c1C=NCCN1CCN(C(=O)c2ccc(F)cc2)CC1`: the “hERG current change (%, negative = inhibition) at 10uM” value is recorded as -73.7%. As for `O=C(COC(=O)c1ccc[n+]([O-])c1)Nc1c(Br)cc([N+](=O)[O-])cc1Br`, the “hERG current change (%, negative = inhibition) at 10uM” value came out at 4.49%.

Regarding `COC(=O)C1CCN(CC(=O)Nc2ccc(C(=O)Nc3ccccc3OC)cc2)CC1`, the “hERG current change (%, negative = inhibition) at 10uM” value is -37.9%.

Turning to `Cc1cc(C(=O)NCCN2C(=O)S/C(=C\c3cccs3)C2=O)ccc1[N+](=O)[O-]`, the “hERG current change (%, negative = inhibition) at 10uM” value was -1.91%. For `CCOc1ccc(NS(=O)(=O)c2ccc(C(=O)N3CCC3)cc2)cc1`, the “hERG current change (%, negative = inhibition) at 10uM” value is listed as -4.09%.

For the molecule `CC1CC(C)CN(S(=O)(=O)c2ccc3c(c2)oc(=O)n3CC(=O)N(C)Cc2ccccc2)C1` (stereo not drawn), the “hERG current change (%, negative = inhibition) at 10uM” value is 7.04%. In the case of `CC(C)CCn1c(=O)c(C(=O)Nc2ccccc2S(N)(=O)=O)c(O)c2ccccc21` it was -11.4%; in that of `Brc1ccc(/C=N/Nc2ccccc2)cc1`, 17.1%. The value for `Cc1onc(-c2ccccc2Cl)c1C(=O)N1CCCCC1` was 13.9%; that for `COCC(=O)NC1(c2nnnn2CCOC(=O)Nc2ccc(Cl)cc2)CCCCC1` was 1%.

As to `CC[n+]1c(/C=C/C=C/N(C(C)=O)c2ccccc2)sc2cc(OC)ccc21.[I-]`, the “hERG current change (%, negative = inhibition) at 10uM” value is -32.8%. The value for `Cc1ccc(-n2nnnc2CNC(=O)C2CC(=O)N(c3ccc(F)cc3)C2)cc1C` (stereo not drawn) was -39.9%; that for `O=S(=O)(Oc1ccccc1N1CCCCC1)c1ccccc1` was -1.07%; that for `CCCCn1c(N)c(N(CC)C(=O)c2cnc(C)cn2)c(=O)[nH]c1=O` was 4.83%.

Consider `CSC1=NCCN1S(=O)(=O)c1ccccc1`, for which the “hERG current change (%, negative = inhibition) at 10uM” value turned out to be 1.28%. The value for `CC(C)(CO)CNC(=O)CCc1nnc(CCCc2ccccc2)o1` was -14.2%. Take `COc1cccc(NC(=O)Cn2c(-c3cncs3)nc3ccccc32)c1`: the “hERG current change (%, negative = inhibition) at 10uM” value is listed as -23.9%. With `O=C(CCC1CCCC1)N1CCN(C(=O)COc2ccccc2)CC1`, the “hERG current change (%, negative = inhibition) at 10uM” value is given as -28.8%. Turning to `COc1ccc(NC2CCCN(C(=O)CSc3ccccn3)C2)cc1OC` (stereo not drawn), the “hERG current change (%, negative = inhibition) at 10uM” value is reported as 2.08%. As for `COC(=O)c1ccccc1NC(=S)NC(=O)CC(C)C`, the “hERG current change (%, negative = inhibition) at 10uM” value is given as 0.413%. Consider `CCOCC(=O)Nc1cc(C(=O)Nc2ccc(F)cc2)ccc1Cl`, for which the “hERG current change (%, negative = inhibition) at 10uM” value was found to be 29.9%. For the molecule `COc1ccc(-c2cc(C(F)(F)F)n3nc(C(=O)O)cc3n2)cc1OC`, the “hERG current change (%, negative = inhibition) at 10uM” value is -4.49%.

With `CC(=O)NC(c1ccccc1)c1c(O)ccc2ccccc12` (stereo not drawn), the “hERG current change (%, negative = inhibition) at 10uM” value came to 5.99%. For the molecule `CC(O)Cc1cn(CC(=O)N2CCN(C(=O)OC(C)(C)C)CC2)nn1` (stereo not drawn), the “hERG current change (%, negative = inhibition) at 10uM” value was determined as 12.8%.

Take `O=C(Nc1cccs1)Nc1ccccc1Cl`: the “hERG current change (%, negative = inhibition) at 10uM” value was -0.641%. The value for `O=C(Nc1ccccc1F)c1oc2ccccc2c1NC(=O)C1CC1` was 17.9%; that for `NC(=O)C1Cc2ccccc2CN1S(=O)(=O)c1ccc(Cl)s1` (stereo not drawn) was -4.93%; that for `Cn1c(N)c(C(=O)CSc2nc(N)cc(=O)[nH]2)c(=O)n(C)c1=O` was 3.42%. Turning to `CCN1C(=O)c2ccc(-c3nc4ccccc4c(=O)o3)cc2C1=O`, the “hERG current change (%, negative = inhibition) at 10uM” value is on record as -14.9%. The value for `CC(=O)Nc1ccc2c(c1)N(C(C)=O)c1ccccc1CC2` was 30.2%; that for `C=CCn1c(=O)c2c(nc3n2CCCN3Cc2ccccc2)n(C)c1=O` was -3.12%. For the molecule `CCOC(=O)C1=C(CSc2nc(CC)c(C)cc2C#N)OC(N)=C(C#N)C1c1ccc(OC)cc1` (stereo not drawn), the “hERG current change (%, negative = inhibition) at 10uM” value is recorded as -1.84%. Take `O=C(Nc1ccc(Br)cc1F)C1CCCO1` (stereo not drawn): the “hERG current change (%, negative = inhibition) at 10uM” value is -6.78%. `O=C(NC1CCCCC1)c1ccc(N2CCCC2=O)cc1`: the “hERG current change (%, negative = inhibition) at 10uM” value worked out at 14.9%.

For `Cc1ccc(C)c(NC(=O)C2CC(=O)N(C(C)C)C2)c1` (stereo not drawn), the “hERG current change (%, negative = inhibition) at 10uM” value is listed as -11.6%. `CCCc1cc(C(=O)N2CCC(n3nccc3NC(=O)c3ccc(OC)cc3)CC2)no1`: the “hERG current change (%, negative = inhibition) at 10uM” value is -23.1%.

In the case of `CC1=C(C(=O)OC2CCCCC2)C(c2ccccc2Br)NC(=O)N1` (stereo not drawn), the “hERG current change (%, negative = inhibition) at 10uM” value was found to be 20.7%. On to `c1ccc2c(c1)OCCOCCOCCOCCOc1ccccc1OCCOCCOCCO2`, for which the “hERG current change (%, negative = inhibition) at 10uM” value is -62.1%. Consider `CCCCP(=O)(O)c1ccccc1`, for which the “hERG current change (%, negative = inhibition) at 10uM” value is -3.79%. In the case of `COc1cc(/C=C/c2ccc3cccc(OC)c3n2)c(O)c([N+](=O)[O-])c1`, the “hERG current change (%, negative = inhibition) at 10uM” value turned out to be 9.97%.

With `Cc1[nH]c2ccccc2c1SCCN`, the “hERG current change (%, negative = inhibition) at 10uM” value is 2.5%. As for `CN(c1ccc(Br)cc1)S(=O)(=O)c1ccc2[nH]cc(C(=O)NCCN3CCOCC3)c(=O)c2c1`, the “hERG current change (%, negative = inhibition) at 10uM” value is reported as -9.15%. Take `CC(=O)N[C@@H](Cc1c[nH]c2ccccc12)C(=O)OCC(=O)NCc1ccc2c(c1)OCO2`: the “hERG current change (%, negative = inhibition) at 10uM” value is reported as 16.2%. Consider `COCCn1c(=NC(=O)c2cc3ccccc3oc2=O)sc2cc(S(N)(=O)=O)ccc21`, for which the “hERG current change (%, negative = inhibition) at 10uM” value was -11.9%.

As for `Cn1nnnc1SCc1cccc2ccccc12`, the “hERG current change (%, negative = inhibition) at 10uM” value is listed as 33.2%. Consider `NS(=O)(=O)c1ccc(N=Cc2c(O)c3ccccc3oc2=O)cc1`, for which the “hERG current change (%, negative = inhibition) at 10uM” value stood at 8.15%.

In the case of `COc1cc(C)c(Cl)cc1S(=O)(=O)n1cnc(C)c1`, the “hERG current change (%, negative = inhibition) at 10uM” value amounted to 1.5%.
